Results published in PubChem BioAssay AID463173 (ICCB-Longwood Screening Facility, Harvard Medical School, 2010).
In all, about 52,000 compounds went through this assay and about 4,300 (8.3%) were called active. No stated cut-off is given here; in the data, active means survival mostly below about 52% (no sharp cut-off); inactive means mostly above about 56%. This is one part of the list.

What follows are molecules tested on DeltatarO mutant (assay: S. aureus survival, RN4220 and DeltatarO strains – OD600, teichoic acid synthesis inhibitors, primary screen (AID 463173)). Conditions: S. aureus RN4220 wild type/DeltatarO growth, OD600, 18 h, hits give low values, screened at 18.75 µg/mL (by protocol).
CCOC(=O)c1ccc(NC(=O)C(CC)Sc2nc3ccncc3[nH]2)cc1 (stereo not given) was tested, and the survival was inactive: 128%.
In the case of CCOC(=O)Cc1c(C)nc2cc(C)nn2c1C, the survival is reported as inactive: 98%.
With Cc1cc(C)nc(-n2nc(C)c3c2N(Cc2ccccc2)C(=O)CC3c2ccc(Cl)cc2)n1 (stereo not given) the survival was inactive: 60%.
For Cc1ccc2c(=O)cc(C(=O)Nc3ccc(S(=O)(=O)Nc4onc(C)c4C)cc3)oc2c1C, the survival was inactive: 79%.
With COC(=O)C1C(=O)NC(S)=C(C#N)C1c1ccccc1Cl (stereo not given) the survival was inactive: 89%.
With O=C(CSc1oc(-c2ccccc2)nc1S(=O)(=O)c1ccc(Cl)cc1)c1ccccc1 the survival was active: 44%.
With Cc1ccc(-n2cc(C(=O)Oc3ccc(F)cc3)c3ccccc3c2=O)cc1 the survival was inactive: 81%.
For O=C(CC1C(=O)N(c2ccc(F)cc2)C(=O)N1Cc1ccc2c(c1)OCO2)Nc1ccc(Cl)cc1 (stereo not given), the survival was active: 43%.
For CC(C)c1ccc(NC(=O)c2cc(S(=O)(=O)N(C)C3CCCCC3)ccc2F)cc1, the survival was inactive: 55%.
For CCCCn1cnc2cc(NCc3ccc(OCC)cc3)ccc21, the survival was active: 11%.
CCOc1ccc(NC(=O)c2cc(S(=O)(=O)N3CCc4ccccc43)ccc2F)cc1 was tested, and the survival was inactive: 88%.
Cc1ccc(S(=O)(=O)N(CCC#N)Cc2ccccc2)cc1 was tested, and the survival was inactive: 82%.
Cc1oc(C(=O)O)cc1CN1CCCC1 was tested, and the survival was inactive: 100%.
CCN(C(=O)Cn1c(=O)n(-c2ccccc2)c(=O)c2ccc(C(=O)NCc3ccc4c(c3)OCO4)cc21)c1cccc(C)c1 was tested, and the survival was inactive: 84%.
For O=C(O)C1CCN(S(=O)(=O)c2cccc3nsnc23)CC1, the survival was inactive: 87%.
With Cc1c(Cl)cccc1NS(=O)(=O)c1ccc(-c2cnc(C3CC3)o2)cc1 the survival was inactive: 124%.
C=CCNC(=O)Cn1c(-c2ccc(F)cc2)nc2ccccc21 was tested, and the survival was inactive: 82%.
In the case of Cc1cc(C)cc(OCC(=O)Nc2c(C(=O)c3ccccc3)oc3ccccc23)c1, the survival is reported as inactive: 92%.
With O=C(CCn1c(=O)c2cccn2c2cccnc21)Nc1ccccc1C(F)(F)F the survival was inactive: 85%.
With CCC(=O)N1c2ccccc2CC1C(=O)NCc1cc(OC)ccc1OC (stereo not given) the survival was inactive: 67%.
For COc1ccc(-c2nc3c(c(SC)n2)Cc2c(CO)cnc(C)c2O3)cc1, the survival was inactive: 83%.
With CCn1c(=O)c2cc(C(=O)NCCCN3CCN(C)CC3)sc2c2ccccc21 the survival was inactive: 110%.
With Cc1ccccc1NC(=O)c1c(C)oc2ccc(O)c(CN3CCOCC3)c12 the survival was inactive: 74%.
O=C(CSc1n[nH]c(-c2ccccc2Cl)n1)NCc1ccc(F)cc1 was tested, and the survival was active: -4%.
For COC(=O)c1sc2nc(C)cc(C)c2c1N, the survival was inactive: 87%.
For O=C(CCC(=O)c1ccc(F)cc1)Nc1ccc(Cl)cc1, the survival was inactive: 94%.
With O=C(c1ccc2c(c1)N(Cc1ccccc1F)C(=O)c1ccccc1S2(=O)=O)N1CCN(c2ccccn2)CC1 the survival was inactive: 79%.
In the case of CCOc1ccc(CNC(=O)C2CCCCN2S(=O)(=O)c2ccc(F)cc2)cc1OC (stereo not given), the survival is reported as inactive: 70%.
In the case of CCOC(=O)c1cc2c(ccn2C)n1Cc1ccc(OC(F)(F)F)cc1, the survival is reported as inactive: 96%.
For CC1CCCN(c2nc3c(-c4ccc(Cl)cc4)nnn3c3ccccc23)C1 (stereo not given), the survival was inactive: 87%.
With Cc1cc(Cl)ccc1NS(=O)(=O)c1c(C(=O)N2CCC(C)CC2)c(C)n(C)c1C the survival was inactive: 55%.
In the case of O=C(Cn1c(-c2ccccc2)noc1=O)NCc1ccccc1, the survival is reported as inactive: 102%.
With Cc1ccc(-c2csc(-c3cc4c([nH]c3=O)CC(c3ccccc3)CC4=O)n2)cc1 (stereo not given) the survival was inactive: 86%.
With COc1ccc2oc(=O)c(-c3nnc(-c4ccc(C)cc4)o3)cc2c1 the survival was inactive: 138%.
In the case of Cc1cc2c(cc1S(=O)(=O)Nc1ccc(OC(F)(F)F)cc1)OCC(=O)N2, the survival is reported as inactive: 49%.
For CCN(CC)S(=O)(=O)c1ccc2c(c1)N(CC(=O)NCc1ccccc1)C(=O)C1CCCCN21 (stereo not given), the survival was inactive: 73%.
With COc1ccc(S(=O)(=O)NCc2nc3nc(C)cc(C)n3n2)cc1 the survival was inactive: 89%.
With O=C(NCCCN1CCN(c2cccc(Cl)c2)CC1)c1sc2ncccc2c1-n1cccc1 the survival was inactive: 70%.
Cc1ccc(-c2nc(CS(=O)(=O)CC(=O)Nc3ccc(Br)cc3F)c(C)o2)cc1 was tested, and the survival was inactive: 77%.
In the case of CCC(=O)Oc1c(Sc2ccc(Cl)cc2)c(C)nn1-c1ccccc1, the survival is reported as active: 13%.
In the case of CCOc1ccc(NC(=O)CSC2=Nc3ccccc3C3=NC(CCC(=O)NCc4ccco4)C(=O)N23)cc1 (stereo not given), the survival is reported as inactive: 67%.
With Cc1ccc(/C=C/c2onc(C)c2S(=O)(=O)N2CCC(C(=O)Nc3ccccc3C(F)(F)F)CC2)cc1 the survival was inactive: 75%.
In the case of CC(=O)c1ccc(N2CCN(c3ncnc4c3c(-c3ccccc3)cn4-c3ccc(Cl)cc3)CC2)cc1, the survival is reported as inactive: 91%.
CCCCSc1nnc2n(-c3ccc(OC)cc3)c(=O)c3c4c(sc3n12)COC(C(C)C)C4 (stereo not given) was tested, and the survival was inactive: 52%.
N#C/C(=C\c1cn(CC(=O)NCC2CCCO2)c2ccccc12)C(=O)NCC1CCCO1 (stereo not given) was tested, and the survival was inactive: 105%.
CCOC(=O)c1cc(S(=O)(=O)Nc2cc(F)ccc2C)[nH]n1 was tested, and the survival was inactive: 60%.
CCCc1nn2c(=O)cc(COC(=O)c3ccccc3NC(=O)COc3ccccc3)nc2s1 was tested, and the survival was inactive: 95%.
CCc1ccc(NC(=O)Cn2c(=O)n(CCC(C)C)c(=O)c3cccnc32)cc1 was tested, and the survival was inactive: 76%.
For O=C(Cc1ccc(Cl)cc1)N1CCOCC1, the survival was inactive: 95%.
With COc1ccccc1NC(=O)c1c(NCc2ccc(C)o2)sc2c1CCCCC2 the survival was inactive: 77%.
For CCOC(=O)N1CCc2c(sc3c2C(=O)NC(c2cc(OC)c(OC)c(OC)c2)N3)C1 (stereo not given), the survival was inactive: 60%.
With CC(=O)Nc1nonc1-c1nnc(SCc2ccccc2F)n1C the survival was inactive: 46%.
CCc1ccccc1NS(=O)(=O)c1ccc2c(c1)CC(=O)N2 was tested, and the survival was inactive: 99%.
In the case of COc1ccc(-n2cc(C(=O)NCCc3cc(OC)ccc3OC)c3ccccc3c2=O)cc1, the survival is reported as active: 55%.
CCC(C(=O)Nc1cccc(-c2nc3cccnc3s2)c1C)c1ccccc1 (stereo not given) was tested, and the survival was inactive: 92%.
In the case of CCOC(=O)c1c(C)[nH]c(C)c1S(=O)(=O)N1CCCC(C(=O)NCc2ccc(N(C)C)cc2)C1 (stereo not given), the survival is reported as inactive: 89%.
For O=C(CSc1nnc(-c2ccco2)n1CC1CCCO1)c1ccccc1 (stereo not given), the survival was inactive: 79%.
In the case of CCOC(=O)c1ccc(-c2ccc(C=C(C#N)C#N)o2)cc1, the survival is reported as inactive: 87%.
With COC(=O)/C(C#N)=C/c1ccc(-c2ccccc2)o1 the survival was inactive: 75%.
For CC(C)CC(=O)Nc1nnc(S(=O)(=O)N(C)Cc2ccc(Cl)cc2)s1, the survival was inactive: 75%.
With CNC(=O)CSc1nc2cc3c(cc2cc1C)OCCO3 the survival was inactive: 77%.
In the case of CNC(=O)CSc1cn(CC(=O)N2CCCCCC2)c2ccccc12, the survival is reported as inactive: 97%.
CC1=C(C(=O)Nc2ccc(C)cc2C)C(c2cccs2)n2nc(SCc3cccc(C)c3)nc2N1 (stereo not given) was tested, and the survival was inactive: 125%.
For COc1cccc(CNC(=O)Cn2nc(-c3ccc(Cl)cc3)ccc2=O)c1, the survival was inactive: 135%.
With CC(=O)c1ccc(NC(=O)c2cc(C)nc3c2c(C)nn3-c2ccc(C)cc2)cc1 the survival was inactive: 102%.
With Cc1cccc2c1N(Cc1ccccc1OCCC(C)C)C(=O)C2=O the survival was active: 2%.
In the case of COc1ccc(-n2c(=O)c3c(c4cc(OC)ccc4n3C)n(Cc3cccc(C)c3)c2=O)cc1, the survival is reported as inactive: 77%.
CCn1c(SCCN2CCOCC2)nnc1C1CCCCC1 was tested, and the survival was inactive: 66%.
COc1ccc2c(c1)c(=O)c(S(=O)(=O)c1ccccc1)cn2CC(=O)Nc1ccc(C)c(Cl)c1 was tested, and the survival was inactive: 97%.
For Clc1ccccc1-c1nnc(COc2ccccc2)o1, the survival was inactive: 50%.
With Cc1ccc(CN(Cc2ccco2)C(=O)c2oc3cc(Br)ccc3c2C)cc1 the survival was active: 43%.
With CC(C)CNC(=S)N1CCC(c2nc(-c3ccc(F)cc3)no2)CC1 the survival was inactive: 54%.
For CCOC(=O)c1ccc(NC(=O)CSc2nc3cc4ccccc4cc3[nH]2)cc1, the survival was inactive: 65%.
Cc1nc2nc(NC(=O)c3ccc(C(C)(C)C)cc3)[nH]n2c(=O)c1Cc1ccccc1 was tested, and the survival was inactive: 108%.
CC1Cc2ccccc2N1C(=O)Cn1nnc(-c2ccccc2F)n1 (stereo not given) was tested, and the survival was inactive: 91%.
With Cc1ccc(-n2c(=O)c3c4c(sc3n(Cc3cc(=O)n5ccccc5n3)c2=O)CCC4)cc1C the survival was inactive: 172%.
For COc1ccc(CNC(=O)Cn2ccc3cc(S(=O)(=O)N4CCCCC4)ccc32)cc1OC, the survival was inactive: 96%.
COc1ccc(OC)c(NC(=O)CN2C(=O)CC(C)Sc3ccccc32)c1 (stereo not given) was tested, and the survival was inactive: 82%.
In the case of CC(C)CCn1nnnc1CN1CCN(Cc2ccc3c(c2)OCO3)CC1, the survival is reported as inactive: 69%.
In the case of N#Cc1c(N)nc2c(c1-c1ccccc1)CCCC2, the survival is reported as inactive: 102%.
With O=C(CCOc1ccccc1)N(Cc1cccnc1)c1nc2ccc(Cl)cc2s1 the survival was inactive: 84%.
For CCOc1ccc(NC(=O)CSc2oc(-c3ccc(F)cc3)nc2S(=O)(=O)c2ccc(C)cc2)cc1, the survival was inactive: 63%.
In the case of CCn1cc(C(=O)NCCc2ccc(OC)c(OC)c2)c(=O)c2cc(S(=O)(=O)N3CCCCCC3)ccc21, the survival is reported as inactive: 123%.
CCOC(=O)c1sc2ccccc2c1S(=O)(=O)Nc1ccc(C(C)=O)cc1 was tested, and the survival was inactive: 92%.
With CC(=O)c1ccc(NS(=O)(=O)c2c(C)nc3scc(C)n3c2=O)cc1 the survival was inactive: 88%.
In the case of Cc1cccc(Cn2c(=O)n(Cc3ccccc3)c(=O)c3c2c2cc(C)ccc2n3C)c1, the survival is reported as inactive: 78%.
With NC(=O)CN1c2cccc3cccc(c23)S1(=O)=O the survival was inactive: 104%.
For CCc1ccc(N(CC)C(=O)Cn2nc(Cc3cccnc3)c3ccccc3c2=O)cc1, the survival was inactive: 81%.
CSc1ncc(C(=O)Nc2ccc(C)c(Cl)c2)c(-c2ccccc2)n1 was tested, and the survival was inactive: 92%.
COc1ccc(Cl)cc1NC(=O)N(C)CCc1c(C)nn(C)c1C was tested, and the survival was inactive: 79%.
